The record followed here is the supplement of paper PMC3334620.

In all, about 33,000 sequences were measured (“E-score (-0.5 to 0.5)”: median about -0.056, highest 2% from about 0.38 on). The list shows a part of the results.

The target in this experiment is Stb4 (UniProt P50104). Nature of the experiment: PBM E-score (8-mer binding enrichment) (E-score (-0.5 to 0.5)); higher = stronger / more preferred TF binding; most listed sequences are background and not binding sites. Conditions: protein concentration: 200 nM; construct: GST-DNA-binding domain. The procedure:
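Universal 'all 10-mer' protein binding microarrays (Agilent AMADID 015681) probed with GST-tagged S. cerevisiae TFs (full-length or DBD) made by in vitro transcription/translation (PURExpress), about 100-200 nM. Bound TF was detected with fluorescent anti-GST. Each ungapped 8-mer (which stands for itself and its reverse complement) is scored by the PBM enrichment score (E-score), a modified Wilcoxon-Mann-Whitney statistic from -0.5 to +0.5, computed with the Universal PBM Analysis Suite. Scale: above 0.35 generally sequence-specific binding.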
On to CCAATCCG, for which the “PBM E-score” value came out at 0.278.

As to ATCTAGAC, the “PBM E-score” value was -0.105.

As for CTCGAAGA, the “PBM E-score” value was -0.135.

With GACTTCCA, the “PBM E-score” value was -0.163.

CATCTCAA: the “PBM E-score” value is -0.221.

Take GTCTGAGA: the “PBM E-score” value is -0.265.

AAATCTCA: the “PBM E-score” value was -0.0445.

CAGAATAC: the “PBM E-score” value is 0.0367.

For TGACCGCA, the “PBM E-score” value came out at 0.0488.

Consider ACGTCACT, for which the “PBM E-score” value is -0.0341.

GATTTGGC: the “PBM E-score” value is -0.164.

On to CTCACTTC, for which the “PBM E-score” value was -0.141.

Take ATGCCCGA: the “PBM E-score” value stood at 0.112.

Regarding AGCATAGA, the “PBM E-score” value is -0.021.

Take TAATATTA: the “PBM E-score” value came to 0.142.

Consider ATCGCAAT, for which the “PBM E-score” value was found to be 0.0414.

Take CCTCTCGC: the “PBM E-score” value is -0.129.

For CGGCGCAA, the “PBM E-score” value is 0.197.

On to CCACATAA, for which the “PBM E-score” value was -0.147.

As to AACAGTGT, the “PBM E-score” value was -0.206.

For AGCCACAT, the “PBM E-score” value was -0.215.

Take CGCGACAA: the “PBM E-score” value was found to be 0.00998.

Take CCCATTTA: the “PBM E-score” value was -0.188.

On to CACAAGCC, for which the “PBM E-score” value was -0.00051.

On to CGACGATC, for which the “PBM E-score” value was determined as 0.168.

Turning to CAATAATC, the “PBM E-score” value turned out to be 0.0381.

For the sequence AAAGGAGG, the “PBM E-score” value is -0.0365.

For the sequence CGAGGGCC, the “PBM E-score” value was determined as 0.164.

Take ATGATCAT: the “PBM E-score” value was -0.0384.

For AGGCCGGA, the “PBM E-score” value stood at 0.272.

Turning to GATACACC, the “PBM E-score” value was determined as 0.144.

Take ACGAACGT: the “PBM E-score” value was -0.112.

Regarding CATAGACG, the “PBM E-score” value was -0.124.

On to CGGAAACA, for which the “PBM E-score” value came out at 0.427.

Take GAAGTCTC: the “PBM E-score” value was -0.00254.

Take CTTCTTTC: the “PBM E-score” value was -0.0217.

As for GCGCGAGA, the “PBM E-score” value was found to be 0.0692.

Turning to CGTCAAGA, the “PBM E-score” value is -0.109.

Regarding TAGACCTA, the “PBM E-score” value is -0.264.

In the case of GCTTAAGC, the “PBM E-score” value is -0.253.

As to CTCGGATA, the “PBM E-score” value stood at 0.49.

As for CGTAAACC, the “PBM E-score” value worked out at 0.0518.

Turning to TGAGGTAA, the “PBM E-score” value was -0.095.

Regarding ATGGGGTC, the “PBM E-score” value was 0.00568.

On to AGCTACTA, for which the “PBM E-score” value worked out at 0.0565.

For the sequence CACTTGAC, the “PBM E-score” value was -0.179.

For the sequence GACTTATC, the “PBM E-score” value is -0.0737.

Regarding CGGTCCAC, the “PBM E-score” value was found to be 0.00164.

AAGAGCCG: the “PBM E-score” value is 0.334.

On to GGGCACGA, for which the “PBM E-score” value is -0.0287.

For the sequence GCCCCGGC, the “PBM E-score” value came out at 0.105.

As to CATGTTAA, the “PBM E-score” value is -0.0413.

As to ATTAGGCC, the “PBM E-score” value was -0.201.

Take ATCCCGAG: the “PBM E-score” value was found to be 0.439.

In the case of GAGGAATA, the “PBM E-score” value came to 0.11.

Take GGGCGACA: the “PBM E-score” value came to 0.0337.

As to AATCATCG, the “PBM E-score” value was 0.0618.

As for GCCGCGAC, the “PBM E-score” value is 0.0123.

For the sequence TAGAATGA, the “PBM E-score” value was -0.266.

With GTACTACA, the “PBM E-score” value is -0.211.

Regarding ACTTTTTG, the “PBM E-score” value came out at 0.0106.

As for ACCAGTCC, the “PBM E-score” value was -0.135.

For the sequence GCTATGCA, the “PBM E-score” value was -0.15.

Regarding AGTGGAGG, the “PBM E-score” value is -0.134.

On to ACATGCGG, for which the “PBM E-score” value was 0.107.

As for ATCGGAGG, the “PBM E-score” value amounted to 0.199.

With ATTCTCAC, the “PBM E-score” value came to 0.0398.

In the case of GTACAGGA, the “PBM E-score” value came to 0.0398.

As to ACTGTAAT, the “PBM E-score” value was -0.145.

With ACGCCGTG, the “PBM E-score” value is -0.0449.

For ATCTACTC, the “PBM E-score” value is -0.0131.

On to CTAGAGCA, for which the “PBM E-score” value was -0.24.

As to AGAGACGC, the “PBM E-score” value amounted to 0.0863.

As for CGGTTGAA, the “PBM E-score” value was found to be 0.124.

On to ACCGCGCT, for which the “PBM E-score” value is -0.0811.

Regarding ACTGCGGA, the “PBM E-score” value turned out to be 0.175.

For the sequence CCGACTGC, the “PBM E-score” value is 0.263.

On to ATCTGCAA, for which the “PBM E-score” value was -0.214.

For the sequence ACTCAGCT, the “PBM E-score” value was -0.129.

AGGAACGA: the “PBM E-score” value came to 0.0238.

Take ACTCTCGC: the “PBM E-score” value was -0.0541.

For the sequence AGATATGG, the “PBM E-score” value was -0.149.

In the case of CCTGTAAA, the “PBM E-score” value was -0.219.

Consider CCCTGAAA, for which the “PBM E-score” value was -0.237.

Take AAAGCCAA: the “PBM E-score” value is -0.118.

In the case of CGCGAAGA, the “PBM E-score” value is 0.112.

As for CCACGAGC, the “PBM E-score” value was 0.0234.

For the sequence ACTTTTAA, the “PBM E-score” value was -0.131.

As for AGTTTCCC, the “PBM E-score” value turned out to be 0.132.

Regarding GATCGGGC, the “PBM E-score” value is 0.22.

Regarding ATGGGTTA, the “PBM E-score” value is -0.125.

On to GGCCCGAA, for which the “PBM E-score” value worked out at 0.381.

As to AGAGAGAT, the “PBM E-score” value was -0.139.

With CCGCTTCA, the “PBM E-score” value came out at 0.114.
